Assay results from the RNAGym collection of RNA variant scans (doi:10.7554/elife.90254).
Read counts are not given, so values of variants with three or more changes are uncertain.

B1: LINE1-mini (parent)
chain: GGCAGAGCUCAACACAGCGUGGCAAAGUGGCUGUGGCUAGACUGCC

Variants of: B1
Assay: self-cleavage, relative activity (ratio to wild type); higher = more cleavage; in vitro, sequencing; the parent is a self-cleaving ribozyme

Row | Variant | self-cleavage
1 | GGCACAGCUCAACAUAGCGUCGCAAAGUGGGUGUGGUUAGACUGCC [G5C C15U G21C C31G C37U] | 0.08
2 | GGCACAGCUCAACAUAGCGUUGCAAAGUGGCUGUGGCUAGACUGCC [G5C C15U G21U] | 0.09
3 | GGCACAGCUCAACACAGAGUGGCAAAGUGGCUGUGGCUCGACUGCC [G5C C18A A39C] | 0.02
4 | GGCACAGCUCAACACAGAGUGGCAAAGUGGCUGUGGCUAGACUGUU [G5C C18A C45U C46U] | 0.02
5 | GGCACAGCUCAACACAGGGUGGCAUAGUGGCUGUGGCUAGACUGCC [G5C C18G A25U] | 0.03
6 | GGCACAGCUCAACACAGGGUGGCAAGGUGGCUGUGACUAGACUUCC [G5C C18G A26G G36A G44U] | 0.04
7 | GGCACAGCUCAACACAGUGUGGCAAAGUGGAUGUGGCUCGAAUGCC [G5C C18U C31A A39C C42A] | 0.03
8 | GGCACAGCUCAACACAGUGUGUCAUAGUGGCUGUGGUUAGACUGGC [G5C C18U G22U A25U C37U C45G] | 0.02
9 | GGCACAGCUCAACACAGUGGGGCAAAGUGGCUGUGGCUAGACUGCC [G5C C18U U20G] | 0.06
10 | GGCACAGCUCAACACAGCGUGGAAAAGUGGUUGUGGCUAGCCAGCC [G5C C23A C31U A41C U43A] | 0.14
11 | GGCACAGCUCAACACAGCGUGGUACAGUGGCAGUGGCUAGACUGCC [G5C C23U A25C U32A] | 0.19
12 | GGCACAGCUCAACACAGCGUGGUAACGUGGCUGUGGCUAGACUGCC [G5C C23U A26C] | 0.05
13 | GGCACAGCUCAACACAGCGUGGCAAAGUGGAUGUGGUUAGACUGCC [G5C C31A C37U] | 0.03
14 | GGCACAGCUCAACACAGCGUGGCAAAGUGGAUGUGGCUACACUGCC [G5C C31A G40C] | 0
15 | GGCACAGCUCAACACAGCGUGGCAAAGUGGUUGUGGCUAGCCUGCC [G5C C31U A41C] | 0.01
16 | GGCACAGCUCAACACAGCGUGGCAAAGUGGCUGUGGAUAGUCUGCG [G5C C37A A41U C46G] | 0.11
17 | GGCACAGCUCAACACAGCGUGGCAAAGUGGCUGUGGAUAGACUGGC [G5C C37A C45G] | 0.02
18 | GGCACAGCUCAACACAGCGUGGCAAAGUGGCUGUGGUUGGACUGCC [G5C C37U A39G] | 0.03
19 | GGCACAGCUCAACACAGCGUGGCAAAGUGGCUGUGGUUAUACUGCC [G5C C37U G40U] | 0

Row | Variant | self-cleavage
20 | GGCACAAUUCAACACAGCGUGGCAAAGUGGCUGUGGCUAGACUGCC [G5C G7A C8U] | 0.73
21 | GGCACAACUCAAGACAGCGUAGCAAAGUGCCUGUGGCUAGACUGCC [G5C G7A C13G G21A G30C] | 0.08
22 | GGCACAACUCAACAAAGCGUGGCAUAGUGGCUGGGGCUAGACUGCC [G5C G7A C15A A25U U34G] | 0.2
23 | GGCACAACUCAACACAGCGUGGCAAAGUGGCUGUGGAUAGACUGCC [G5C G7A C37A] | 0.11
24 | GGCACAACUCAACACAGCGUGGCAAAGUGGCUGUGGCUAGACUACA [G5C G7A G44A C46A] | 0.02
25 | GGCACAUCUCAACGCAGCGUGUCAAAGUGGCUGUGGCUAGACUGCC [G5C G7U A14G G22U] | 0.63
26 | GGCACAUUUCAAUACAGCGUGGCAAAGUGGCUGUGGCUAGACUGCC [G5C G7U C8U C13U] | 1.08
27 | GGCACAUCUCAACAGGGCGAGGCAAAGUGGCUGUGGCUAGACUGCC [G5C G7U C15G A16G U20A] | 0.06
28 | GGCACAUCUCAACAGAGCUUGGCAAAGUGGCUGUAGCUAGACUUCC [G5C G7U C15G G19U G35A G44U] | 0.18
29 | GGCACAUCUCAACAUAGCGUGGCAAAGUGGCUGUAGCUAGACUGCC [G5C G7U C15U G35A] | 0.37
30 | GGCACAUCUCAACACAGCGUGGCAAAGUCGCUGUGGCUAGACUGCC [G5C G7U G29C] | 0.04
31 | GGCACAUCUCAACACAGCGUGGCAAAGUGCCUGUGGCUAGACAGCC [G5C G7U G30C U43A] | 0.08
32 | GGCACAGCUCAACACAAAGUGGCAAAGUGGCUGUGGCUAGACUGCC [G5C G17A C18A] | 0.01
33 | GGCACAGCUCAACACAAAGUGGCAAAGUGGCUGUGGCUAGACUGAC [G5C G17A C18A C45A] | 0.01
34 | GGCACAGCUCAACACAAAGAGUCAAAGUGGAUGUGGCAAGAAUGCC [G5C G17A C18A U20A G22U C31A U38A C42A] | 0.1
35 | GGCACAGCUCAACACAACGUAGCAAAAUGGCUGUGGCUAGACUGGC [G5C G17A G21A G27A C45G] | 0.02
36 | GGCACAGCUCAACACACCGUAGCAAAGUGGCUGUGGUUAGACUGCC [G5C G17C G21A C37U] | 0.04
37 | GGCACAGCUCAACACAUAAUGGCAAAGUGGUUGUUGCUAGACUGCC [G5C G17U C18A G19A C31U G35U] | 0.02
38 | GGCACAGCUCAACACAUCGUGGCAAAGUGGCUGUGGCUAGACUGAC [G5C G17U C45A] | 0

Row | Variant | self-cleavage
39 | GGCACAGCUCAACACAUCGUGGCAAAGUGGCAGUGGCUAGACUGCC [G5C G17U U32A] | 0.05
40 | GGCACAGCUCAACACAUCGUGGCAAAGUGGCUGGUGCUAGACUGCC [G5C G17U U34G G35U] | 0
41 | GGCACAGCUCAACACAGCAUGGCAAAGUGGAUGUGGCUAAACUGCC [G5C G19A C31A G40A] | 0.03
42 | GGCACAGCUCAACACAGCAUGGCAAAGUUGAUGUGACUAGAGUGCC [G5C G19A G29U C31A G36A C42G] | 0.01
43 | GGCACAGCUCAACACAGCCUGGCAAAGUGGCUGUGGCUAGACAGCC [G5C G19C U43A] | 0.02
44 | GGCACAGCUCAACACAGCUUGGCAAAGUGGAUGUGGUUAUACUGCC [G5C G19U C31A C37U G40U] | 0.04
45 | GGCACAGCUCAACACAGCUUCGCAAAGUGGGUGUGGCUAGACUGCC [G5C G19U G21C C31G] | 0.07
46 | GGCACAGCUCAACACAGCUUGGCAAAGUGGCUAUGCCUAGACUGCC [G5C G19U G33A G36C] | 0.01
47 | GGCACAGCUCAACACAGCGUAGCAAAGUGGCUGUGGCUAUUCUGCC [G5C G21A G40U A41U] | 0.15
48 | GGCACAGCUCAACACAGCGUCGCUAAGUGGCUGUGUCUAGACUGUC [G5C G21C A24U G36U C45U] | 1.39
49 | GGCACAGCUCAACACAGCGUCGCAAAGUGGCUAUGGCUAGACUGCC [G5C G21C G33A] | 0.62
50 | GGCACAGCUCAACACAGCGUUGCAAAGUGGCUGUGGGUAGACUGCC [G5C G21U C37G] | 0.01
51 | GGCACAGCUCAACACAGCGUUGCAAAGUGGCUGUGGCUAGAUUGCC [G5C G21U C42U] | 0.04
52 | GGCACAGCUCAACACAGCGUGAGAAAGUGGCUGUGGCUAGACUGCC [G5C G22A C23G] | 0.07
53 | GGCACAGCUCAACACAGCGUGCCAAAGUGGCUGUGGCUCGACUGCC [G5C G22C A39C] | 0.01
54 | GGCACAGCUCAACACAGCGUGCCAAAGUGGCUGUGGCUAGACUGCG [G5C G22C C46G] | 0.01
55 | GGCACAGCUCAACACAGCGUGUCAAAAUUGCUGUGGCUAGACUGCC [G5C G22U G27A G29U] | 0.02
56 | GGCACAGCUCAACACAGCGUGGCAAAAUGGAUGUGGCUAGACUGCC [G5C G27A C31A] | 0.07
